Test results published in PubChem BioAssay AID328 (DTP/NCI, 2004).
Toxic doses and inconclusive results are not listed. Not every entry of the source has a single result; some have several. The other results are left out here. There may be further records. Values given together differ, and nothing given here explains why; they may come from other doses, times, organisms or constructs than stated.

Test system: BDF1 mice, P388 leukemia ip, median survival T/C
Test: NCI In Vivo Anticancer Drug Screen. Data for tumor model P388 Leukemia (intraperitoneal) in B6D2F1 (BDF1) mice
Conditions: endpoint: median survival time, higher = longer survival
Summary of the method: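 Each value expresses how treatment altered survival: treated-mouse outcome over vehicle-mouse outcome, both groups bearing the transplanted tumour.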

[1] = dose: 0.5 mg/kg/injection, schedule: Q01DX009 (ip), vehicle: water

In the case of COc1cccc2c1C(=O)c1c(O)c3c(c(O)c1C2=O)C[C@@](O)(/C(C)=N/NC(=O)c1ccc(O)cc1)C[C@@H]3OC1CC(N)C(O)C(C)O1 (stereo partly specified), the T/C [1] was 120 % of control and 193 % of control.
In the case of CC[C@H]1CN2CCc3cc(OC)c(OC)cc3[C@@H]2C[C@@H]1C[C@H]1NCCc2cc(O)c(OC)cc21, the T/C (dose: 1.0 mg/kg/injection, schedule: Q01DX010 (ip), vehicle: saline) was 100 % of control and 154 % of control.
For CCCCCCCC(=O)OCC(=O)[C@]1(O)Cc2c(O)c3c(c(O)c2[C@@H](OC2CC(N)C(O)C(C)O2)C1)C(=O)c1c(OC)cccc1C3=O (stereo partly specified), the T/C (dose: 8.0 mg/kg/injection, schedule: Q04DX003 (ip), vehicle: water) was 103 % of control and 173 % of control.
CO[C@H](C(=O)[C@@H](O)[C@@H](C)O)[C@@H]1Cc2cc3cc(OC4CC(OC5CC(O)C(O)C(C)O5)C(O)C(C)O4)c(C)c(O)c3c(O)c2C(=O)[C@H]1OC1CC(OC2CC(OC3CC(C)(O)C(O)C(C)O3)C(O)C(C)O2)C(O)C(C)O1 (stereo partly specified) was tested, and the T/C (dose: 0.25 mg/kg/injection, schedule: Q01DX009 (ip), vehicle: saline) was 87 % of control, 151 % of control, 160 % of control and the T/C (dose: 0.5 mg/kg/injection, schedule: Q01DX009 (ip), vehicle: saline) was 95 % of control, 192 % of control, 195 % of control.
In the case of C1CN(P2(N3CC3)=NP(N3CC3)(N3CC3)=NP(N3CC3)(N3CC3)=N2)CCO1 (stereo unspecified), the T/C (dose: 50.0 mg/kg/injection, schedule: Q01DX009 (ip), vehicle: saline) was 91 % of control and 156 % of control.
COc1ccc(C(=O)N/N=C(\C)[C@]2(O)Cc3c(O)c4c(c(O)c3[C@@H](OC3CC(N)C(O)C(C)O3)C2)C(=O)c2c(OC)cccc2C4=O)cc1 (stereo partly specified) was tested, and the T/C [1] was 104 % of control and 183 % of control.
For COc1cccc2c1C(=O)c1c(O)c3c(c(O)c1C2=O)C[C@@](O)(C(=O)O)C[C@@H]3OC1CC(N)C(O)C(C)O1 (stereo partly specified), the T/C (dose: 12.5 mg/kg/injection, schedule: Q01DX009 (ip), vehicle: water) was 100 % of control and 151 % of control, the T/C (dose: 25.0 mg/kg/injection, schedule: Q01DX009 (ip), vehicle: water) was 107 % of control and 163 % of control and the T/C (dose: 50.0 mg/kg/injection, schedule: Q01DX009 (ip), vehicle: water) was 102 % of control and 151 % of control.
In the case of CCC1CC2CC(c3cc4c(cc3OC)N(C)C3C(O)(C(=O)OC)C(OC(C)=O)C5(CC)C=CCN6CCC43C65)c3[nH]c4ccccc4c3CCN(C1)C2 (stereo unspecified), the T/C (dose: 2.0 mg/kg/injection, schedule: Q04DX003 (ip), vehicle: water) was 100 % of control and 177 % of control.
